# Test results: the supplement of paper PMC3334620
# The full ranking holds about 33,000 sequences; the median of “E-score (-0.5 to 0.5)” is about -0.021, and the highest 2% start at about 0.32. This is one part of the list.
# Target: T1, Zap1 (UniProt P47043)
# T1 sequence: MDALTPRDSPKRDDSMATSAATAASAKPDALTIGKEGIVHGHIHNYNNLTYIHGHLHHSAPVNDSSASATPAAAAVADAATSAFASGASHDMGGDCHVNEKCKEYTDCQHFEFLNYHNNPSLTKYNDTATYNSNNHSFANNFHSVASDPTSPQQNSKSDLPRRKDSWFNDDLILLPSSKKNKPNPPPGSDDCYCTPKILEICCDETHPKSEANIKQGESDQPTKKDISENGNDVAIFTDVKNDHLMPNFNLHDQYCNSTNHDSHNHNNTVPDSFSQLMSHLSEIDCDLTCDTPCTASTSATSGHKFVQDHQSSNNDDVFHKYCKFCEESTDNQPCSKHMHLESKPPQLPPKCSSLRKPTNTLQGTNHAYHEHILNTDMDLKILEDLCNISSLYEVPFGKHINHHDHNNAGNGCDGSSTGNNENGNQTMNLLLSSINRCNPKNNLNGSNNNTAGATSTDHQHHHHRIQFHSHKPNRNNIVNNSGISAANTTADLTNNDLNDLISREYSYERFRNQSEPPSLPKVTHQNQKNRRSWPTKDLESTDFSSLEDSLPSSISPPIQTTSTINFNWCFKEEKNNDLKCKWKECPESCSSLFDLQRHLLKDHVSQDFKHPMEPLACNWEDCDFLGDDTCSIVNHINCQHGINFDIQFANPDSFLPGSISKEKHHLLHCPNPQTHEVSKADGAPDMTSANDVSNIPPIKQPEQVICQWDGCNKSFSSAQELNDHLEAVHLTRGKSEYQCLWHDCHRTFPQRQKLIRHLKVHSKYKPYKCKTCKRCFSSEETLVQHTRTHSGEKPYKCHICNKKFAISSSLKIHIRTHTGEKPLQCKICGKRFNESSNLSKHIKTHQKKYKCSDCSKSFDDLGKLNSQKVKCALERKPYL
# Assay: PBM E-score (8-mer binding enrichment) (E-score (-0.5 to 0.5)); higher = stronger / more preferred TF binding; most listed sequences are background and not binding sites
# Conditions: protein concentration: 200 nM; construct: GST-full length
# Procedure: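 Universal 'all 10-mer' protein binding microarrays (Agilent AMADID 015681) probed with GST-tagged S. cerevisiae TFs (full-length or DBD) made by in vitro transcription/translation (PURExpress), about 100-200 nM. Bound TF was detected with fluorescent anti-GST. Each ungapped 8-mer (which stands for itself and its reverse complement) is scored by the PBM enrichment score (E-score), a modified Wilcoxon-Mann-Whitney statistic from -0.5 to +0.5, computed with the Universal PBM Analysis Suite. Scale: above 0.35 generally sequence-specific binding.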
row,Sequence,PBM E-score
1,GTATGCTA,-0.0179
2,CACCACAA,0.147
3,CCGCTAGG,0.0355
4,CTCGTAAC,0.327
5,GTAAGAAC,0.16
6,AATTTCAA,0.0698
7,ACAAACCT,0.132
8,CCATCAGG,0.173
9,ATATAAGG,0.233
10,TATCACGA,-0.0459
11,GCGACACC,0.0184
12,GATTTTGC,-0.179
13,CCACCGGC,-0.151
14,ACCCCTTC,0.234
15,CATCGCCG,-0.234
16,CGTCTTTA,0.202
17,CCCTTGCC,-0.0358
18,ATTCTTAA,-0.00338
19,CCGGGAAC,-0.0469
20,CAGCACTC,-0.102
21,ATCGGGTC,0.139
22,ATGTGGTA,0.169

row,Sequence,PBM E-score
1,CGTTAGAG,-0.109
2,GCGAGAGA,-0.278
3,ACTGATCT,-0.0207
4,ACCTCCAC,0.246
5,GAGGACAC,-0.0267
6,GCTATCCA,-0.0719
7,ACATGCGA,-0.112
8,GCGGCAAC,-0.0926
9,TCGTCAGA,-0.147
10,GAGTTATA,0.142
11,AGGATAGG,0.0469
12,GGCGAGGA,-0.328
13,CCCTTTTA,0.0826
14,GCCATACC,-0.0123
15,CGGACTAG,-0.294
16,AGAGAGAC,-0.00859
17,GCGAATTA,0.0522
18,AAGTAGCC,-0.0966
19,GACGTGGA,-0.231
20,ACAATTGG,-0.0772
21,GAGCTTGC,-0.303
22,AACATTTC,0.016

row,Sequence,PBM E-score
1,CCGACTCC,-0.258
2,TAAAAGGA,0.217
3,CTTGCGTC,-0.0988
4,GGTAATCA,0.242
5,ATGTGAAT,0.0575
6,AAATCCAT,-0.00087
7,AGCTACAG,-0.206
8,AGTTTACA,0.18
9,CCTCCTTC,-0.148
10,AAAGAAGC,-0.0231
11,CCAAGCGC,-0.279
12,ATCCGGCG,-0.274
13,ATACGGAT,-0.0958
14,ACAGCGCA,-0.133
15,GGACTGCC,-0.161
16,ATTAGCAC,-0.0547
17,GAGCCGCA,-0.21
18,CTACCCCC,-0.295
19,CCGACCGA,-0.0556
20,GGACTATA,-0.0435
21,CGAATTGC,-0.0962
22,AGGTACCG,0.43

row,Sequence,PBM E-score
1,TCGCGGAA,-0.0426
2,GAATCTGC,-0.135
3,TCGGGAGA,-0.316
4,AGAATCCG,-0.0807
5,AATCTTCT,-0.0118
6,CTGTCTTA,0.00679
7,AGACACGG,-0.0446
8,ATGCCCCA,-0.141
9,CGACTAGC,-0.2
10,CAAGGAGG,-0.0113
11,GGCACCCC,0.065
12,AGCCGAGA,-0.0701
13,CTGTGACA,-0.0182
14,ATCAGGAA,0.00148
15,CCGCTGCA,-0.0498
16,ATAGACGC,-0.147
17,AACAGAGC,-0.189
18,CTGCGAAG,-0.179
19,AACATCTG,-0.137
20,CAACAACC,0.274
21,CGAGCCAC,-0.181
22,AAGATCAT,-0.0644

row,Sequence,PBM E-score
1,CTAAGTTA,0.155
2,CCTCTGAC,0.139
3,TCCTCAGA,0.0182
4,CGCGCAAG,-0.0116
5,ACATTTTG,0.0143
6,ACCCACAT,0.253
7,CCGAATAA,0.201
8,CCACAAAG,0.34
9,GTACGCTA,-0.112
10,ACAGAAGA,-0.061
11,ACGGTGTG,-0.136
12,ACGATGGA,0.00241
13,AGGGGATG,-0.0219
14,AGATGCCG,-0.23
15,AAGTAGGC,-0.106
16,CGGAACCA,0.229
17,CGGCCCAA,0.0673
18,ATTGATGA,0.0238
19,GACTAGCC,-0.201
20,TTAGTAAA,0.0891
21,ACCGCGAG,0.284
